Experimental data reported in PMC4336329 (PLoS ONE, 2015).
The whole screen tested about 310,000 compounds, of which about 2,200 (0.71%) showed an effect of 50% or more. Effects have a minus sign here. Some of the results follow.

Target: human ether-à-go-go-related gene (hERG) potassium channel (human, UniProt Q12809)
Experiment: primary screen, population patch clamp on CHO cells stably expressing hERG

human ether-à-go-go-related gene (hERG) potassium channel, sequence (Q12809 whole entry, looked up): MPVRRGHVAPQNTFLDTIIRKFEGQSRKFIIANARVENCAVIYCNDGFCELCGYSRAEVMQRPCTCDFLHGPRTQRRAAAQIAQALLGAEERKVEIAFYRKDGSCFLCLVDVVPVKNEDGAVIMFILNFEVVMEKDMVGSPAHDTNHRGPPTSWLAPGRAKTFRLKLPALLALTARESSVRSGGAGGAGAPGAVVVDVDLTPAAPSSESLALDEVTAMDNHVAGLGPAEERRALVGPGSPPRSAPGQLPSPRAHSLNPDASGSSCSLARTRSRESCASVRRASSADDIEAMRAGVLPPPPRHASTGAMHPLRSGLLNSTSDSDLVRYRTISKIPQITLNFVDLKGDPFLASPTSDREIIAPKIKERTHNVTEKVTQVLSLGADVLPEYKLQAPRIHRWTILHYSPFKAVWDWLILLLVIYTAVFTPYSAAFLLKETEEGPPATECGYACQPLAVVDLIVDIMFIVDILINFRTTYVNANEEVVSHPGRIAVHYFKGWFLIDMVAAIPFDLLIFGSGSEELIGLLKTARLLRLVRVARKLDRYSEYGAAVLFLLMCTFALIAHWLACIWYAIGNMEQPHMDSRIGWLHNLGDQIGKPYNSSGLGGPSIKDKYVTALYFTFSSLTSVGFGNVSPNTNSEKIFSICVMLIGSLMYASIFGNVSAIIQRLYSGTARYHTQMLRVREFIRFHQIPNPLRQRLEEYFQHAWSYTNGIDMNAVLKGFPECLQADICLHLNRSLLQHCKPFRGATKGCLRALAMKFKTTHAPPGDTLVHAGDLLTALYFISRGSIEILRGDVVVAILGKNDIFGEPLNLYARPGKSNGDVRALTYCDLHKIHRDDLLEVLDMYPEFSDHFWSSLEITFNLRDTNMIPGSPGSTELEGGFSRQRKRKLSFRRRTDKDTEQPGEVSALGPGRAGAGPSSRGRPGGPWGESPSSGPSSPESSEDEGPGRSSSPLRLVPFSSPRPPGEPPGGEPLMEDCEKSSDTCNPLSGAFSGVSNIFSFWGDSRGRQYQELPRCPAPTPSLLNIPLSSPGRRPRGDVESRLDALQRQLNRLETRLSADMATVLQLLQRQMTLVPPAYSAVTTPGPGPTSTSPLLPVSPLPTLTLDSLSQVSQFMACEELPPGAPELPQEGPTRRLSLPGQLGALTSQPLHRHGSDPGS

SMILES | hERG current change (%, negative = inhibition) at 1uM [%]
Cc1noc(C)c1COc1ccccc1C(=O)N1CCN(c2cccc(Cl)c2)CC1 | 13
Cc1cc(C(=O)NCc2cc(C(=O)O)oc2C)c(C)o1 | 5.79
Cc1sc2ncn(CC(=O)NCCCC(=O)N3CCN(c4ncccn4)CC3)c(=O)c2c1C | 18.5
COc1ccc(NC(=O)c2cccc3c2C(=O)c2ccc(-c4cnc(OC)nc4)cc2S3(=O)=O)cc1 | 14.5
O=C(COC(=O)/C=C/c1cccc([N+](=O)[O-])c1)NCc1ccco1 | 13.8
CCCCn1c(=O)c(CCC(=O)OCC(=O)NC(=O)NCCC(C)C)nc2ccccc21 | 2.09
Brc1ccc([C@H]2CN3CCSC3=N2)cc1.O=C(O)C(=O)O | 3.28
CSc1ncccc1C(=O)OCC(=O)c1ccc(Br)s1 | 1.26
Nc1nc2c(c(=O)[nH]1)C(c1ccccc1)C1=C(N2)c2ccccc2C1=O (stereo not shown) | 3.2
CCOc1ccccc1OCCCC(=O)Nc1ccc(Cl)c(S(=O)(=O)N2CCOCC2)c1 | 7.17
Cl.c1ccc(COc2ccccc2CNC23CC4CC(CC(C4)C2)C3)cc1 | -73.8
CCC(C)C(NC(=O)c1ccccc1NC(=O)c1ccccc1)C(=O)O (stereo not shown) | -6.6
Cc1c(C#N)sc2nc(-c3ccccc3)nc(N3CCCC3)c12 | 14
CCOC(=O)C1(CCOc2ccccc2)CCN(C(=O)CCSC)CC1 | -11.3
CC(=O)c1ccc(N2CCN(C(=O)c3ccco3)CC2)c(F)c1 | 0.108
Cn1c2ccc(F)cc2c2ncn(CCN3CCOCC3)c(=O)c21 | -6.05
O=C(O)CC1Sc2ccccc2NC1=O (stereo not shown) | -12
CCOC(=O)C1=C(COC(=O)Cc2c(F)cccc2Cl)NC(=O)NC1C (stereo not shown) | 2.93
O=C(CC1(O)C(=O)Nc2ccccc21)c1cccnc1 (stereo not shown) | 9.72
Cn1c(CSc2nc3ccccc3s2)nnc1SCC(=O)NCc1cccnc1 | 2.2
COC(=O)C1=C(C(=O)OC)[C@@H]2Nc3ccccc3[C@@]23C[C@@H](C(=O)OC)N(C(=O)c2cccs2)C3=N1 | 8.31
CCOP(=O)(OCC)C(NC(=O)c1ccc(OC)cc1)C(Cl)(Cl)Cl (stereo not shown) | 14.9

SMILES | hERG current change (%, negative = inhibition) at 1uM [%]
CCOC(=O)N1CCN(C(=O)c2cccc(S(=O)(=O)Nc3ccc(Br)cc3)c2)CC1 | 7.62
COCCN=c1scc(-c2ccco2)n1/N=C/c1ccc(O)c(O)c1O | 8.87
COCCNC(=O)CSCc1nc(-c2ccc(SC)cc2)oc1C | 2.42
Cc1ccc2[nH]c3c(NCc4ccccc4)ncnc3c2c1 | 7.55
Cc1cccc(C(=O)N2CCN(CCNC(=O)C(=O)Nc3ccc(F)cc3)CC2)c1 | 4.08
Cc1c(-c2ccccc2)cn2c1-c1ccc(C)n1CC2 | 11
N#Cc1cc(Oc2ccc(Cl)cc2)c(N2CCOCC2)cc1C#N | 7.48
O=C(Cn1c(=O)cnc2ccccc21)N1CCN(S(=O)(=O)c2cccc([N+](=O)[O-])c2)CC1 | 3.24
C=CCNC(=O)c1sccc1Oc1ccc(F)cc1[N+](=O)[O-] | 8.88
O=C(NCC(c1ccco1)N1CCc2ccccc2C1)c1ccc(F)cc1 (stereo not shown) | 6.35
CC(=O)c1cccc(NC(=O)c2cc(-c3ccco3)nc3ccccc23)c1 | 13
CN(C)S(=O)(=O)c1cccc(NC(=S)N/N=C/C(c2ccccc2)c2ccccc2)c1 | -0.478
O=C(O)c1ccccc1-c1nnc2c(Cl)cc(C(F)(F)F)cn12 | 13.8
Cc1cc(C)n(-c2ccc(C(=O)OCC(=O)NCc3ccc(F)cc3)cc2)n1 | 5.05
Nc1c(Cl)cc(C2=NCCn3nc4cc([N+](=O)[O-])ccc4c32)cc1Cl | 0.193
CN(C)CCCNC(=O)c1ccccn1 | -0.119
CCCCCCSC1=C(C#N)C(=O)NC2(CCCCC2)S1 | 15.8
O=S(=O)(c1ccc2c(c1)OCCO2)N1CCC(O)(c2ccc(Cl)cc2)CC1 | 12.8
CCCNC(=O)C(Sc1ccccc1)c1ccccc1 (stereo not shown) | 11.6
O=C(NNC(=S)Nc1ccccc1)c1ccc2ncccc2c1 | 25.6
Cc1onc(-c2c(Cl)cccc2Cl)c1C(=O)N(C)Cc1ccccc1 | 13.9
CCN(CC)C(=O)C1CCCN(Cc2ccccc2F)C1 (stereo not shown) | 14.8

SMILES | hERG current change (%, negative = inhibition) at 1uM [%]
COc1ccc2nc(NC(=O)c3cc(C)oc3C)sc2c1 | 9.47
CNCCCOc1cccc(Oc2ccccc2)c1.O=C(O)C(=O)O | 2.63
CN(N)N=Nc1nc2c([nH]1)c(=O)n(C)c(=O)n2C | 8.61
CCc1ccc2[nH]c(O)c(N=Nc3nc(-c4ccccc4)cs3)c2c1 | 3.9
CC(C)C(C(=O)NCC1CCCO1)N(Cc1ccco1)C(=O)CNS(=O)(=O)c1ccccc1 (stereo not shown) | 11.3
O=C1C2CCCN2C(=O)N1CCCN1CCN(c2cccc(Cl)c2)CC1 (stereo not shown) | 3.46
CN1CCC(=C(c2ccccc2)c2ccc(Br)cc2)CC1.Cl | -17.8
Cc1ccc(CNC(=O)CS(=O)Cc2nc(-c3ccccc3Cl)oc2C)cc1 (stereo not shown) | 13.6
COc1ccc(S(=O)(=O)N2CCCOC2CNC(=O)C(=O)NCCCn2ccnc2)cc1 (stereo not shown) | 4.48
CC(NC(=O)N1CCN(c2ccccc2F)CC1)c1ccc(F)c(F)c1 (stereo not shown) | 18.4
CCCN1CCCC(C(=O)c2cc(C)c(OC)c(C)c2)C1 (stereo not shown) | 9.9
O=C(Nc1nc2ccsc2c(=O)s1)c1ccco1 | 8.69
Nc1cc(=O)[nH]c(SCc2ccc(Cl)cc2Cl)n1 | 12.2
Cc1ccc(NC(=O)CCNS(=O)(=O)c2ccccc2)cc1S(=O)(=O)N1CCOCC1 | 18.1
Cc1ccc(C(=O)Nc2ccc3c(c2)nc2n3CCSC2)cc1 | -10.9
C=CCNC(=O)C1CCN(c2cnccn2)CC1 | 12.1
O=C(CSc1nnc(-c2ccco2)n1Cc1ccccc1)NCc1ccccc1 | 1.17
COc1ccc(C(=O)NC(C)c2ccccc2)cc1Br (stereo not shown) | 9.26
Cc1cc(C)nc(Nc2n[nH]c(-c3cccc4ccccc34)n2)n1 | -4.86
COc1ccccc1CCC(=O)OCC(=O)NC1CCCC1 | 6.62
COc1ccc(C[C@H]2CN3C(=NC[C@@H]3C(C)C)N2CCNC(=O)c2ccc(C)c(Br)c2)cc1 | -66.8
O=C(C1CCCN1S(=O)(=O)c1ccc(Cl)cc1)N1CCOCC1 (stereo not shown) | 6.33

SMILES | hERG current change (%, negative = inhibition) at 1uM [%]
CCOC(=O)C1C2C=CC3(CN(CCc4ccccc4)C(=O)C13)O2 (stereo not shown) | 11
O=C(Nc1ccc(Cc2ccncc2)cc1)c1cccs1 | 5.03
CC(C)(C)C(=O)Nc1cc(S(=O)(=O)Nc2ccc(Cl)cc2)ccc1O | 12.2
Cc1cccc(C(=O)OCC(=O)c2ccc(CC(=O)N3CCOCC3)s2)c1C | -2.12
O=C(Nc1ccc(N2CCCC2)c(Cl)c1)c1ccc(Br)o1 | 11.2
NC(=O)CC(NC(=O)c1ccccc1)c1ccc(NCCOc2ccccc2)c([N+](=O)[O-])c1 (stereo not shown) | 3.88
Cc1csc2c(N3CCN(C(=O)Nc4ccccc4)CC3)ncnc12 | 3.23
COc1ccc2nc(NC(=O)CN(C)S(=O)(=O)c3cccs3)sc2c1 | -0.451
COc1ccc(C(=O)Nc2cccc(C(=O)N3CCCC3)c2)cc1 | 8.03
COc1ccc(Cl)cc1NC(=O)c1c(-c2ccccc2)noc1C | 11.2
CSCCCc1cn([C@@H](CO)C(=O)NCCCCCCCCCCC(=O)N2CCNCC2)nn1 | 14.6
COc1cccc(C(=O)NC2CC3CCCC(C2)N3CC(=O)Nc2ccc(N(C)C)cc2)c1 (stereo not shown) | -7.26
CC(=O)NC(Cc1c[nH]c2ccccc12)C(=O)NCCc1ccccc1 (stereo not shown) | 15
CCN(CC(=O)Nc1ccc2c(c1)OCCO2)C(=O)/C=C/c1cccc(OC)c1OC | 15.4
O=C1NC(=O)C(CC(=O)N(Cc2cccs2)C2(C(=O)NC3CCCCC3)CCCCC2)N1 (stereo not shown) | 12
COc1cc(NC(=O)[C@@H]2CCCN2S(=O)(=O)c2cccc3cccnc23)cc(OC)c1OC | 8.88
O=C(CN1C(=O)c2ccc([N+](=O)[O-])cc2C1=O)Nc1nccs1 | 9.83
COc1ccc(N2C(=O)CN=C2Nc2cccc(C)c2C)cc1OC | 5.77
COc1c2n(C)ccc3c-2n(c(=O)c1=O)c1ccccc31 | 12.6
O=C(O)CC(CC(=O)N1CCN(C(=O)c2ccco2)CC1)c1ccccc1 (stereo not shown) | 11.4
CC(C)(C)NC(=O)CN(C(=O)c1ccc(Cl)nc1)c1cccc2ccccc12 | -3.75
COc1ccc(-c2sc(Nc3ccccc3)n[n+]2C)c(C)c1C.[Cl-] | 7.26
